Assay results taken from the supplement of paper PMC12217912.
The other results are listed elsewhere or left out. Sequences were assembled here from the parent chain. Inactive controls read about 0.05.

B1: TEV protease; numbered along this chain (parent)
chain: MGESLFKGPRDYNPISSSICHLTNESDGHTTSLYGIGFGPFIITNKHLFRRNNGTLVVQSLHGVFKVKDTTTLQQHLVDGRDMIIIRMPKDFPPFPQKLKFREPQREERICLVTTNFQTKSMSSMVSDTSCTFPSGDGIFWKHWIQTKDGQCGSPLVSTRDGFIVGIHSASNFTNTNNYFTSVPKNFMELLTNQEAQQWVSGWRLNADSVLWGGHKVFMVKPEEPFQPVKEATQL

Variants of: B1
Experiment: raw area under fraction-flipped curve 0-4 h after induction (AUC4h, not background-subtracted), DNA-recorder readout of cleavage of the substrate (dimensionless); higher = more cleavage of the substrate by the protease variant
Conditions: temperature: 34 °C; time window: 0-4 h after rhamnose induction
Experimental: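 In vivo DNA recorder in E. coli TOP10(DE3) ΔrhaA at 34 °C. Each TEVp single-site mutant (parent TEVp 0) is paired with a single-site variant of the 7-mer TEVs (canonical ENLYFQ|S). The substrate sits between flexible linkers in a Bxb1-sfGFP-TEVs-SsrA fusion, so cleavage stabilises Bxb1 and speeds flipping of a recombination array, read by NGS. The value is the raw area under the fraction-flipped curve over 0-4 h after rhamnose induction (AUC4h), with ≥20 reads per time point. It is not background-subtracted; inactive controls average about 0.047.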
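Further: Bxb1 expression induced with 0.2% (w/v) L-rhamnose at OD600 near 0.5, cultures sampled hourly, flipped fraction per protease–substrate barcode pair counted by paired-end Illumina sequencing.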

| Variant | area with substrate ENAYFQS | area with substrate ENCYFQS | area with substrate ENDYFQS | area with substrate ENIYFQS | area with substrate ENNYFQS | area with substrate ENPYFQS | area with substrate ENQYFQS | area with substrate ENSYFQS | area with substrate ENTYFQS | area with substrate ENVYFQS | area with substrate ENEYFQS | area with substrate ENFYFQS | area with substrate ENGYFQS | area with substrate ENKYFQS | area with substrate ENMYFQS | area with substrate ENRYFQS | area with substrate ENWYFQS | area with substrate ENYYFQS | area with substrate ENHYFQS |
| --- | --- | --- | --- | --- | --- | --- | --- | --- | --- | --- | --- | --- | --- | --- | --- | --- | --- | --- | --- |
| G63H | 0.0994 | 0.0717 | 0.086 | 0.0813 | 0.0667 | 0.0437 | 0.0597 | 0.0502 | 0.0541 | 0.0673 |  |  |  |  |  |  |  |  |  |
| G166I | 0.0588 | 0.0467 |  |  | 0.0613 | 0.0498 | 0.0442 | 0.0516 |  | 0.0699 | 0.0458 | 0.0554 | 0.0691 | 0.0569 | 0.0524 | 0.0505 | 0.0389 | 0.0405 |  |
| M83G | 0.0531 |  | 0.0604 | 0.0693 | 0.0373 | 0.0618 | 0.0571 | 0.0709 |  | 0.0407 | 0.0488 | 0.048 | 0.0471 | 0.0558 |  | 0.0561 | 0.0587 | 0.0545 | 0.043 |
| P40Y | 0.0661 | 0.078 | 0.056 |  | 0.0688 | 0.0574 | 0.0488 | 0.0521 |  | 0.0723 | 0.0621 | 0.0604 |  | 0.0534 |  | 0.0657 | 0.0602 | 0.0639 | 0.061 |
| I139P | 0.0579 | 0.0622 | 0.068 |  |  |  | 0.0548 |  | 0.0546 | 0.0594 |  |  |  |  |  |  |  |  |  |
| P228Q | 0.0433 | 0.0687 | 0.0614 | 0.163 | 0.0608 | 0.0572 | 0.0612 | 0.0896 | 0.0789 | 0.0689 | 0.0614 | 0.0533 |  | 0.068 | 0.0796 | 0.0565 | 0.0526 | 0.066 | 0.0487 |
| D91W | 0.0557 |  | 0.0393 | 0.113 | 0.0607 | 0.0615 | 0.08 | 0.0621 | 0.0596 | 0.0696 |  | 0.059 | 0.0686 | 0.0583 | 0.0908 | 0.0629 |  | 0.0568 | 0.0616 |
| S26D | 0.0623 | 0.0598 | 0.0629 |  | 0.0585 | 0.0682 | 0.0562 | 0.0736 | 0.068 | 0.0661 | 0.0669 | 0.0603 |  | 0.0496 |  |  | 0.0828 |  | 0.0631 |
| M219I | 0.063 |  | 0.069 | 0.0905 | 0.0489 | 0.0523 | 0.0651 | 0.017 | 0.0633 | 0.0651 | 0.0592 | 0.0664 | 0.0638 |  |  | 0.0463 | 0.0586 |  | 0.0601 |
| L73W | 0.066 |  |  |  | 0.046 | 0.0649 | 0.0562 | 0.0478 | 0.0318 | 0.0533 | 0.0675 |  | 0.0651 |  |  |  |  |  |  |
| L73S | 0.0509 |  | 0.0628 |  |  |  | 0.0612 | 0.0548 |  |  | 0.0536 | 0.0577 |  |  | 0.0633 | 0.0505 |  | 0.0391 | 0.0727 |
| I167S | 0.0351 | 0.0525 | 0.0615 |  | 0.0605 | 0.0494 | 0.0604 | 0.0606 |  | 0.0534 | 0.0522 | 0.0599 | 0.0441 | 0.0727 |  | 0.0472 | 0 | 0.0519 | 0.0717 |
| G2D | 0.0594 | 0.0542 | 0.0623 | 0.0728 | 0.0671 | 0.0607 | 0.0698 | 0.0499 | 0.0632 | 0.0819 | 0.0664 | 0.0854 | 0.0732 | 0.0555 | 0.0569 | 0.0628 |  | 0.0662 |  |
